# Test results from PubChem BioAssay AID1466 (National Center for Advancing Translational Sciences (NCATS), 2008).
# Hit rate of the full screen: of about 200,000 compounds, about 10 (0.005%) were called active. The shares of active, inactive and inconclusive entries below differ from those in the screen. Calls follow the shape of the dose curve; as a rule, active = well fitted inhibition curve with a large enough effect; inconclusive = small, poorly fitted or top-dose-only effect, or effect the other way, or another doubt; inactive = no such curve, though single readings can be large or run the other way. Potencies of inconclusive entries are left out as doubtful fits.
# Biological target: Lysosomal alpha-glucosidase (Homo sapiens) (UniProt P10253)
# Experiment: qHTS Assay for Inhibitors of Human alpha-Glucosidase as a Potential Chaperone Treatment of Pompe Disease;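 as to activity change, negative = inhibition: plate controls were uninhibited enzyme wells for no effect and no-enzyme background for full effect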
# Details: purified human GAA, 4-MU-alpha-glucoside fluorescence; activity change, negative = inhibition: at 76.9 µM (top of the series) unless noted
# Outline: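 Read-out is 4-methylumbelliferone fluorescence (Ex 365/Em 440 nm) after NaOH/glycine stop at pH 10. Enzyme 4 nM, substrate 400 uM, pH 5.0 citrate buffer, 20 min room temperature; AC50 from Hill-equation concentration-response.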
# Potency is read from the fitted curve at half-maximal effect; tags tell the direction and shape of the fitted curve.
SMILES,"activity change, negative = inhibition",Potency
COCCCNC(=S)Nc1ccccc1[N+](=O)[O-],inconclusive: 11.3% [activator],
COc1ccc(/C(C)=N/NC(=O)C(NC(=O)c2ccccc2)c2n[nH]c(=O)c3ccccc23)c(OC)c1 (stereo not given),,"inconclusive [inhibitor, single point]"
CCOC(=O)C1=C(CN2CC(C)CC(C)C2)NC(=O)NC1c1ccc2c(c1)OCO2 (stereo not given),,"inconclusive [inhibitor, full curve, poor fit]"
COc1cc(C(=O)N[C@H](C(=O)Nc2nnc(C3CC3)s2)C(C)C)cc(OC)c1OC,,"inconclusive [inhibitor, single point]"
COc1cc(SC)ccc1C(=O)NC(C)C,,"inconclusive [activator, full curve, poor fit]"
S=C(NCCc1ccccc1)N1CCn2cccc2C1c1ccncc1 (stereo not given),inconclusive: 8.06% [activator],
CCOC(=O)c1sc2nc(N3CCOCC3)c3c(c2c1N)CCN(Cc1ccccc1)C3,inconclusive: 35.4% [activator],
O=C(NCC(=O)N(CC1CCCO1)C(C(=O)NC1CCCCC1)c1ccc(F)cc1)c1ccco1 (stereo not given),,"inconclusive [inhibitor, single point]"
CCOC(=O)C(=O)N1CCC(C(=O)OC)CC1,,"inconclusive [activator, full curve, poor fit]"
COc1cc(NC(=O)CSCc2cnn(-c3ccccc3)c2-n2cccc2)cc(OC)c1,,"inconclusive [inhibitor, partial curve]"
Cc1ccc(NC(=O)NCc2ccncc2)cc1Cl,inconclusive: 15% [activator],
CCOC(=O)N1CCN(C(=O)Nc2ccc3nc(C)c(C)nc3c2)CC1,,"inconclusive [activator, partial curve]"
Cc1ccc(-c2nc3ncccn3c2NC(=O)C2CC2)cc1,inactive: 6.14%,
Cc1ccc(NS(=O)(=O)c2ccc(OCC(=O)Nc3cccc([N+](=O)[O-])c3)c(C)c2)cc1,,"inconclusive [inhibitor, single point]"
Cc1c(N=Cc2ccc[nH]2)c(=O)n(-c2ccccc2)n1C,inactive: 0.578%,
COc1ccccc1N1C(=O)CC(Nc2ccc(N3CCOCC3)cc2)C1=O (stereo not given),inactive: 2.22%,
O=C1CC(c2ccc(Cl)cc2)n2nc(N3C(=O)c4ccccc4C3=O)nc2N1 (stereo not given),,"inconclusive [inhibitor, single point]"
CC(=O)N/N=C(\C)CC(=O)Nc1ccc2c(c1)OCCO2,inconclusive: 17.6% [activator],
CCOC(=O)c1cc(-c2ccccc2)n(CCC(=O)N2CCN(c3ccc(OC)cc3)CC2)c1C,,"inconclusive [inhibitor, partial curve]"
COc1ccccc1-c1nc(C#N)c(N2CC(C)CC(C)C2)o1 (stereo not given),inconclusive: 17.8% [activator],

SMILES,"activity change, negative = inhibition",Potency
COC(=O)c1c(N2C(=O)[C@H]3[C@@H](C2=O)[C@]2(C(=O)Nc4ccccc42)N2CCC[C@@H]32)sc(C)c1C,,"inconclusive [inhibitor, full curve]"
O=C1CC(C(=O)N(c2ccc(F)cc2)C(C(=O)NC2CCCC2)c2ccccn2)CS1 (stereo not given),,"inconclusive [inhibitor, partial curve, poor fit]"
CCc1ccccc1NC(=O)CCN1C(=O)C2C3CCC(C3)C2C1=O (stereo not given),,"inconclusive [inhibitor, full curve, poor fit]"
O=C(Nc1cc2c3c(c1)C1CCCC1CN3CC1CCCC21)c1ccccc1 (stereo not given),,"inconclusive [inhibitor, full curve, poor fit]"
COc1cccc(NC(=O)c2cc([N+](=O)[O-])ccc2NCc2cccnc2)c1,,"inconclusive [inhibitor, single point]"
CCC(=O)N1CCN(c2ccccc2NC(=O)c2cccc(C)c2)CC1,inconclusive: -16.6% [inhibitor],
COc1ccccc1N1N=C(c2cccs2)CC1c1ccccc1 (stereo not given),,"inconclusive [activator, single point]"
CC1CCCCN1c1nc2nonc2nc1N1CCCCC1C (stereo not given),,"inconclusive [inhibitor, single point]"
O=c1c2ccccc2nc(COc2ccccc2)n1/N=C/c1cc([N+](=O)[O-])ccc1O,,"inconclusive [inhibitor, partial curve]"
CN(Cc1ccccc1)C(=O)CCSc1nc(-c2ccc3c(c2)OCO3)cc(C(F)(F)F)n1,inconclusive: 19.3% [activator],
CCC(=O)Nc1ccc(C(=O)Nc2ccc3c(c2)C(=O)N(CC2CCCO2)C3=O)cc1 (stereo not given),,"inconclusive [activator, single point]"
O=C(NCc1ccc(F)cc1)C1CCCN(c2nc3ccsc3c(=O)s2)C1 (stereo not given),,"inconclusive [activator, partial curve]"
Cc1ccc(CNc2ccc(CNc3ncn[nH]3)cc2)cc1,inconclusive: -18.1% [inhibitor],
O=C(Nc1ccccc1)Nc1nnc(-c2cccs2)s1,,"inconclusive [activator, partial curve, poor fit]"
COc1ccc(N(CC(=O)Nc2ccc(S(=O)(=O)N3CCCC3)cc2)S(C)(=O)=O)cc1OC,,"inconclusive [inhibitor, single point]"
O=[N+]([O-])c1ccc(Sc2nc3ccccc3o2)c([N+](=O)[O-])c1,inconclusive: -19.2% [inhibitor],
CCOC(=O)N1CCN(C(=O)CCn2nc(-c3ccc(Cl)cc3)ccc2=O)CC1,,"inconclusive [activator, partial curve]"
CCSc1ccc(-c2nn(-c3ccccc3)cc2/C=C(/C#N)C(=O)NC)cc1,,"inconclusive [activator, partial curve]"
CC(=O)n1c2ccccc2c2c1c1ccccc1n2C,,"inconclusive [activator, single point]"
CCOC(=O)c1cc(-c2ccc3c(c2)OCCO3)nc2c1c(C)nn2CCC#N,inconclusive: 16% [activator],
